# Test results taken from PubChem BioAssay AID248 (DTP/NCI, 2004).
# Inconclusive results and toxic doses are left out. A number of entries come with more than one value. Only these are listed. The source may hold further records. Results that share an entry differ for a reason that is not stated; some may be repeats, others may stem from another dose, organism or construct than stated.
# System: L1210 leukemia ip in BDF1 mice, survival T/C
# Experiment: NCI In Vivo Anticancer Drug Screen. Data for tumor model L1210 Leukemia (intraperitoneal) in B6D2F1 (BDF1) mice
# Details: endpoint: mean survival time; dose: 400.0 mg/kg/injection; schedule: Q01DX001 (ip); vehicle: carboxymethylcellulose (CMC); higher = longer survival
smiles,measurement,value
CCCCCN(C)/N=N/c1nc[nH]c1C(N)=O,T/C,97 % of control and 170 % of control
